Test results as given in the RNAGym collection of RNA variant scans (doi:10.7554/elife.90254).
Read counts are not given, so values of variants with three or more changes are uncertain.

B1: LINE1-full (parent)
chain: UACGUAGGUGGUUUUCCCCUGAUAGUGCUAAGGGGGCCUGGAAGUUUGGACUGGGCAGAGCUCAACACAGCGUGGCAAAGUGGCUGUGGCUAGACUGCCUCUCUGGAUUCCUCGUCACUCAGCAGGGCAUCUCUGAGAGAAAUGCC

Variants of: B1
Assay: self-cleavage, relative activity (ratio to wild type); higher = more cleavage; in vitro, sequencing; the parent is a self-cleaving ribozyme

Row | Variant | self-cleavage
1 | G10A A24G U52C A107G A117U A136G | 2.63
2 | G10A A24G U108C | 1.31
3 | G10A A24U A43U | 1.33
4 | G10A A31U C128G | 0.66
5 | G10A A31U U62A U87A U134C | 0.02
6 | G10A A42G A43G U112C A129G | 2.83
7 | G10A A59G U96A G105A U115A | 0
8 | G10A G33U U47C A79G | 2.3
9 | G10A G34A U52C A141G | 1
10 | G10A G34C A67G C76U U104A U134C | 1.06
11 | G10A G35A A124U | 1.14
12 | G10A G35U U96C | 0
13 | G10A G44A A59G | 0.15
14 | G10A G86U U102A U104C U112C A141G | 0.07
15 | G10A U12C U14C A69G A79G G82A G89A | 0.12
16 | G10A U12C U14C U47A A78G U143C | 0.42
17 | G10A U12G A59G U85C U134C | 1.08
18 | G10A U13C G21U G127U | 0
19 | G10A U13C U29C A43G U47A U102A A142G | 0.79
20 | G10A U14C C18U | 0.7
21 | G10A U15A A65G U109C | 0.22
22 | G10A U15C A42G | 2
23 | G10A U20A U26C | 0.56
24 | G10A U20C A78G C113A | 1.43

Row | Variant | self-cleavage
25 | G10A U26A A50C C68A U112C | 0.05
26 | G10A U45G U112C | 0.87
27 | G10A U46A A50G A142G | 0.65
28 | G10A U47A U100C U108C | 1.75
29 | G10A U47C A64G A124G | 0.54
30 | G10A U47C U73A | 0.91
31 | G10A U47C U96C G127C U130A | 0.63
32 | G10A U52A A57G U85A C116U U119C | 0.01
33 | G10A U85C U132A | 0
34 | G10A U104G U115C | 1.53
35 | G10U A22G A65G | 0.26
36 | G10U A30U U52C | 1.5
37 | G10U A64U A67G | 0.11
38 | G10U U15C A22G A67C G83A | 0.14
39 | G10U U104A U112C | 0.24
40 | G11A A42G U87A U112C | 0.04
41 | G11A A42U C66U | 0.04
42 | G11A A43G A78G | 0.73
43 | G11A A69G G75A A94G U100C A141G | 0
44 | G11A A79G A136U A140G | 1.1
45 | G11A A92C A94G | 0.12
46 | G11A A92U U96C A107U U112C C120U | 0.11
47 | G11A G36A A43U A64U A124G | 0.15
48 | G11A G49A U112C | 0.71

Row | Variant | self-cleavage
49 | G11A G72A U102C A129G | 1.33
50 | G11A G74C U100A | 0.59
51 | G11A G74U A79G | 1.01
52 | G11A U12C G83A | 0.74
53 | G11A U12G G32A A59G | 0.31
54 | G11A U13C A22U A50G A140G U143C | 0.54
55 | G11A U14C U104G | 0.65
56 | G11A U15A C28A A138G | 0.83
57 | G11A U26C A57G U91C | 0.68
58 | G11A U29C A121C A141G | 1.07
59 | G11A U39C A69G U85C G122U | 2.3
60 | G11A U45C G54C | 0.82
61 | G11A U47A C56A | 0.06
62 | G11A U62C U104A | 0.05
63 | G11A U81C A117G A124U | 1.62
64 | G11A U108C U115A | 2.18
65 | G11A U115C G135A | 1.43
66 | G11C A65G U96A A140G | 0.08
67 | G11C A69G G72A | 0.44
68 | G11C U29C U73A U87A | 0.07
69 | G11C U47C U104C A140G | 1.21
70 | G11U A24G A129G | 1.18
71 | G11U G72U U115A | 1.29
72 | G11U U13A A142G | 1.15

Row | Variant | self-cleavage
73 | G11U U15C A59G U87C | 0.34
74 | G11U U15C A92G C95A A140G | 0.03
75 | U12A A22C U39C | 1.06
76 | U12A A22G G54A U73C | 0.57
77 | U12A A24G G33A | 1.03
78 | U12A A31G U85A | 0.07
79 | U12A A42G U109A G122U G139A | 0.77
80 | U12A A57G A65G C133A | 0.28
81 | U12A A57G C66U A79G | 0.08
82 | U12A A57G U62A A117C A136G | 0.11
83 | U12A A57G U143C | 1.01
84 | U12A A57U C84U U96C | 0.03
85 | U12A A57U G126A A129G | 0.13
86 | U12A A59G A64G | 0.12
87 | U12A A78G U102A | 0.21
88 | U12A A79G U96C U119C G126A | 0
89 | U12A A79G U108C C133U | 0.71
90 | U12A A94U A140G | 0.42
91 | U12A A107G U109A | 2.32
92 | U12A C61U A94G A121G | 0
93 | U12A C68U A107G A121U | 0.26
94 | U12A C99U A124U | 0.81
95 | U12A C99U U104C A140U | 1.55
96 | U12A G35A A136G | 1.41

Row | Variant | self-cleavage
97 | U12A G36A A94G A136G U143C | 0
98 | U12A G40A A69U G114A U130C | 0.06
99 | U12A G48U U62C U100C | 0
100 | U12A G89A G135A | 0.02
101 | U12A U13C A30U U62C U96C | 1.38
102 | U12A U13C A77G A117G A129U | 1.91
103 | U12A U13C U100C A117U A142G | 2.1
104 | U12A U14C A65G | 0.34
105 | U12A U14C A107G C131U A138G | 1.19
106 | U12A U15C A79U | 0.46
107 | U12A U20G A124U U132C | 1.41
108 | U12A U26A U115C G126A | 1.15
109 | U12A U26C U29A U52C C99U | 0.74
110 | U12A U29A A78C U104A | 1.56
111 | U12A U29C A79G U115A | 0.97
112 | U12A U39A A42G U85A U100A A107U U108A U132C | 0
113 | U12A U39C A129C | 1.38
114 | U12A U45A U73A U91C A141G A142G | 0
115 | U12A U46A A77G U85C A140G U143C | 0.31
116 | U12A U46C A50G G105A G122A | 0.8
117 | U12A U47A A50G | 1.46
118 | U12A U47C G137U | 2
119 | U12A U52A C98U | 0.2
120 | U12A U73C A77G A136G | 1.45

Row | Variant | self-cleavage
121 | U12A U73C A141G | 1.64
122 | U12A U73C A142G | 1.88
123 | U12A U81A U102C | 2.3
124 | U12A U81C A94G A121U U132C | 0
125 | U12A U81C A107U | 1.44
126 | U12A U81C U109A A129G U132C | 1.84
127 | U12A U85C A140G | 0.17
128 | U12A U85C U108C | 0.85
129 | U12A U96A U100A A140G | 0
130 | U12A U96G C99U C146A | 0.09
131 | U12C A22C A129C | 2.44
132 | U12C A22C U115C U143C | 2.51
133 | U12C A22G A24G U26A G93A U115C | 0.28
134 | U12C A22G A77G | 1.84
135 | U12C A22G U87A U91C A117U A124U | 0.43
136 | U12C A22U G27A U52C U102A | 1.37
137 | U12C A22U G27C | 1.58
138 | U12C A22U U143A | 1.16
139 | U12C A24G A77G C84U U85C U134A | 0.22
140 | U12C A24G U62A A69G A121G | 0
141 | U12C A24U A31U U62C | 0
142 | U12C A24U U26C A42G A50G C76U | 1.72
143 | U12C A30G C131A | 0.89
144 | U12C A30G G33A | 0.74

Row | Variant | self-cleavage
145 | U12C A30G G54A A64U A142G | 0.76
146 | U12C A30G U96A G122A | 0.21
147 | U12C A31G A42U U132C | 0.69
148 | U12C A31G U87A | 0.09
149 | U12C A31U U52A | 0.63
150 | U12C A42G A94G U100A A136G | 1.15
151 | U12C A42G C71G U73G | 0.34
152 | U12C A42G C99G | 0.37
153 | U12C A42G U112C | 1.31
154 | U12C A42U U47G U62C U85C U91C | 0
155 | U12C A43G A92G U102C | 0
156 | U12C A43G G144U | 1.5
157 | U12C A43G U52A | 1.7
158 | U12C A43G U112C A138G | 0
159 | U12C A43G U134A | 0.71
160 | U12C A50G U62C | 0
161 | U12C A57G U62C | 0.14
162 | U12C A57G U62C U85A | 0.09
163 | U12C A57G U85A | 0
164 | U12C A57G U132C | 1.34
165 | U12C A57U A64G A94G U130C | 0
166 | U12C A57U A77U U100C | 0.28
167 | U12C A59G G88A | 0.23
